According to the supplement of paper PMC12230231:
± gives the standard deviation of the averaged measurements. Restriction of a single-cycle SIVsab GFP reporter by TRIM5α v1-loop variants in CRFK cells. Human variants: read share among cells still uninfected after two challenges over input, higher = gained restriction. Rhesus variants: share among infected cells over input, higher = lost restriction. Reporter dose not given per row. No active / inactive call per row; the paper calls a change when both replicates lie above its controls (mean + 2 SD of stop or wild-type variants, or the top frameshift score). Residues outside the varied loop are taken from Swiss-Prot. The paper reads the human single-substitution scores as noise; they and the rhesus combinations repeat poorly (rank correlation 0.3 to 0.4), indel scores repeat only for the top variants, rhesus substitutions well (0.9).

Test system: SIVsab (simian immunodeficiency virus of sabaeus monkeys), single-cycle GFP reporter, in CRFK cells
Assay: enrichment among uninfected cells over input (fold); higher = stronger restriction
Conditions: library: human / rhesus combinations
Description: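 Pools of CRFK cells expressing variants of the TRIM5α v1 loop were challenged with the single-cycle reporter, sorted by GFP and sequenced; mean of two replicates.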

| Sequence | enrichment |
| --- | --- |
| MASGILVNVKEEVTCPICLELLTQPLSLDCGHSFCQACLTANHKKSMLDKGESSCPVCRISYQPENIRPNRHVANIVEKLREVKLSPEGQKVDHCARHGEKLLLFCQEDGKVICWLCERSQEHRGHHTFLTEEVAREYQVKLQAALEMLRQKQQEAEELEADIREEKASWKTQIQYDKTNVLADFEQLRDILDWEESNELQNLEKEEEDILKSLTNSETEMVQQTQSLRELISDLEHRLQGSVMELLQGVDGVIKRTENVTLKKPETFPKNQRRVFRAPDLKGMLEVFRELTDVRRYWVDVTVAPNNISCAVISEDKRQVSSPKPQIIYGARGTLYTFQTLVNFNYCTGILGSQSITSGKHYWEVDVSKKTAWILGVCAGFQPDAMCNIEKNENYQPKYGYWVIGLEEGVKCSAFQDSSFHTPSVPFIVPLSVIICPDRVGVFLDYEACTVSFFNITNHGFLIYKFSHCSFSQPVFPYLNPRKCGVPMTLCSPSS [human TRIM5α, 330-340 = GARGTLYTFQTLV] | 0.209 ± 0.24 |
| MASGILVNVKEEVTCPICLELLTQPLSLDCGHSFCQACLTANHKKSMLDKGESSCPVCRISYQPENIRPNRHVANIVEKLREVKLSPEGQKVDHCARHGEKLLLFCQEDGKVICWLCERSQEHRGHHTFLTEEVAREYQVKLQAALEMLRQKQQEAEELEADIREEKASWKTQIQYDKTNVLADFEQLRDILDWEESNELQNLEKEEEDILKSLTNSETEMVQQTQSLRELISDLEHRLQGSVMELLQGVDGVIKRTENVTLKKPETFPKNQRRVFRAPDLKGMLEVFRELTDVRRYWVDVTVAPNNISCAVISEDKRQVSSPKPQIIYGAPGTLYTFQSFTNFNYCTGILGSQSITSGKHYWEVDVSKKTAWILGVCAGFQPDAMCNIEKNENYQPKYGYWVIGLEEGVKCSAFQDSSFHTPSVPFIVPLSVIICPDRVGVFLDYEACTVSFFNITNHGFLIYKFSHCSFSQPVFPYLNPRKCGVPMTLCSPSS [human TRIM5α, 330-340 = GAPGTLYTFQSFT] | 0.125 ± 0.021 |
| MASGILVNVKEEVTCPICLELLTQPLSLDCGHSFCQACLTANHKKSMLDKGESSCPVCRISYQPENIRPNRHVANIVEKLREVKLSPEGQKVDHCARHGEKLLLFCQEDGKVICWLCERSQEHRGHHTFLTEEVAREYQVKLQAALEMLRQKQQEAEELEADIREEKASWKTQIQYDKTNVLADFEQLRDILDWEESNELQNLEKEEEDILKSLTNSETEMVQQTQSLRELISDLEHRLQGSVMELLQGVDGVIKRTENVTLKKPETFPKNQRRVFRAPDLKGMLEVFRELTDVRRYWVDVTVAPNNISCAVISEDKRQVSSPKPQIIYQAPGTLFPSFVNFNYCTGILGSQSITSGKHYWEVDVSKKTAWILGVCAGFQPDAMCNIEKNENYQPKYGYWVIGLEEGVKCSAFQDSSFHTPSVPFIVPLSVIICPDRVGVFLDYEACTVSFFNITNHGFLIYKFSHCSFSQPVFPYLNPRKCGVPMTLCSPSS [human TRIM5α, 330-340 = QAPGTLFPSFV] | 0.187 ± 0.23 |
| MASGILVNVKEEVTCPICLELLTQPLSLDCGHSFCQACLTANHKKSMLDKGESSCPVCRISYQPENIRPNRHVANIVEKLREVKLSPEGQKVDHCARHGEKLLLFCQEDGKVICWLCERSQEHRGHHTFLTEEVAREYQVKLQAALEMLRQKQQEAEELEADIREEKASWKTQIQYDKTNVLADFEQLRDILDWEESNELQNLEKEEEDILKSLTNSETEMVQQTQSLRELISDLEHRLQGSVMELLQGVDGVIKRTENVTLKKPETFPKNQRRVFRAPDLKGMLEVFRELTDVRRYWVDVTVAPNNISCAVISEDKRQVSSPKPQIIYGAPGTLFTFQSFTNFNYCTGILGSQSITSGKHYWEVDVSKKTAWILGVCAGFQPDAMCNIEKNENYQPKYGYWVIGLEEGVKCSAFQDSSFHTPSVPFIVPLSVIICPDRVGVFLDYEACTVSFFNITNHGFLIYKFSHCSFSQPVFPYLNPRKCGVPMTLCSPSS [human TRIM5α, 330-340 = GAPGTLFTFQSFT] | 0.479 ± 0.32 |

Same assay, conditions: library: insertions and deletions

| Sequence | enrichment |
| --- | --- |
| MASGILVNVKEEVTCPICLELLTQPLSLDCGHSFCQACLTANHKKSMLDKGESSCPVCRISYQPENIRPNRHVANIVEKLREVKLSPEGQKVDHCARHGEKLLLFCQEDGKVICWLCERSQEHRGHHTFLTEEVAREYQVKLQAALEMLRQKQQEAEELEADIREEKASWKTQIQYDKTNVLADFEQLRDILDWEESNELQNLEKEEEDILKSLTNSETEMVQQTQSLRELISDLEHRLQGSVMELLQGVDGVIKRTENVTLKKPETFPKNQRRVFRAPDLKGMLEVFRELTDVRRYWVDVTVAPNNISCAVISEDKRQVSSPKPQIIYGARGRGTRYQTFVNFNYCTGILGSQSITSGKHYWEVDVSKKTAWILGVCAGFQPDAMCNIEKNENYQPKYGYWVIGLEEGVKCSAFQDSSFHTPSVPFIVPLSVIICPDRVGVFLDYEACTVSFFNITNHGFLIYKFSHCSFSQPVFPYLNPRKCGVPMTLCSPSS [human TRIM5α, 2-codon duplication at 332] | 0.203 ± 0.11 |
| MASGILVNVKEEVTCPICLELLTQPLSLDCGHSFCQACLTANHKKSMLDKGESSCPVCRISYQPENIRPNRHVANIVEKLREVKLSPEGQKVDHCARHGEKLLLFCQEDGKVICWLCERSQEHRGHHTFLTEEVAREYQVKLQAALEMLRQKQQEAEELEADIREEKASWKTQIQYDKTNVLADFEQLRDILDWEESNELQNLEKEEEDILKSLTNSETEMVQQTQSLRELISDLEHRLQGSVMELLQGVDGVIKRTENVTLKKPETFPKNQRRVFRAPDLKGMLEVFRELTDVRRYWVDVTVAPNNISCAVISEDKRQVSSPKPQIIYGARGTRYQTFVGTRYQTFVNFNYCTGILGSQSITSGKHYWEVDVSKKTAWILGVCAGFQPDAMCNIEKNENYQPKYGYWVIGLEEGVKCSAFQDSSFHTPSVPFIVPLSVIICPDRVGVFLDYEACTVSFFNITNHGFLIYKFSHCSFSQPVFPYLNPRKCGVPMTLCSPSS [human TRIM5α, 8-codon duplication at 333] | 0.498 ± 0.24 |
| MASGILVNVKEEVTCPICLELLTQPLSLDCGHSFCQACLTANHKKSMLDKGESSCPVCRISYQPENIRPNRHVANIVEKLREVKLSPEGQKVDHCARHGEKLLLFCQEDGKVICWLCERSQEHRGHHTFLTEEVAREYQVKLQAALEMLRQKQQEAEELEADIREEKASWKTQIQYDKTNVLADFEQLRDILDWEESNELQNLEKEEEDILKSLTNSETEMVQQTQSLRELISDLEHRLQGSVMELLQGVDGVIKRTENVTLKKPETFPKNQRRVFRAPDLKGMLEVFRELTDVRRYWVDVTVAPNNISCAVISEDKRQVSSPKPQIIYGARGYGARGTRYQTFVNFNYCTGILGSQSITSGKHYWEVDVSKKTAWILGVCAGFQPDAMCNIEKNENYQPKYGYWVIGLEEGVKCSAFQDSSFHTPSVPFIVPLSVIICPDRVGVFLDYEACTVSFFNITNHGFLIYKFSHCSFSQPVFPYLNPRKCGVPMTLCSPSS [human TRIM5α, 5-codon duplication at 329] | 0.231 ± 0.21 |
| MASGILVNVKEEVTCPICLELLTQPLSLDCGHSFCQACLTANHKKSMLDKGESSCPVCRISYQPENIRPNRHVANIVEKLREVKLSPEGQKVDHCARHGEKLLLFCQEDGKVICWLCERSQEHRGHHTFLTEEVAREYQVKLQAALEMLRQKQQEAEELEADIREEKASWKTQIQYDKTNVLADFEQLRDILDWEESNELQNLEKEEEDILKSLTNSETEMVQQTQSLRELISDLEHRLQGSVMELLQGVDGVIKRTENVTLKKPETFPKNQRRVFRAPDLKGMLEVFRELTDVRRYWVDVTVAPNNISCAVISEDKRQVSSPKPQIIYGARGTRYQTFVNFNYCTGILGSQCTGILGSQSITSGKHYWEVDVSKKTAWILGVCAGFQPDAMCNIEKNENYQPKYGYWVIGLEEGVKCSAFQDSSFHTPSVPFIVPLSVIICPDRVGVFLDYEACTVSFFNITNHGFLIYKFSHCSFSQPVFPYLNPRKCGVPMTLCSPSS [human TRIM5α, 8-codon duplication at 345] | 0.366 ± 0.13 |
